According to the supplement of paper PMC11880418:
Where a name gives a salt, the structure may show the parent alone. The list shows a part of the results. The data scatter; read single values as rough.

These compounds were tested on T84 (assay: ALDHbr (CSC) cell proportion score relative to DMSO vehicle (ratio to DMSO); breast (SUM159) / gastric (MKN45) / pancreatic (PANC1) / colon cancer lines; ALDHbr cells have high ALDH activity and are rich in cancer stem cells (CSC); higher = more CSC (ALDHbr) cells remaining). Conditions: 10 µM; 72 h.
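Note: High-content imaging of ALDEFLUOR-stained cells with Hoechst-labelled nuclei in 384-well plates, triplicate wells, scored as Z-score against 0.1% DMSO vehicle, negative meaning fewer ALDHbr cells.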

Row | SMILES | ALDHbr
1 | C[C@]12CCC(=O)C=C1CC[C@@H]1[C@@H]2[C@@H](O)C[C@@]2(C)[C@H]1CC[C@]2(O)C(=O)CO [Hydrocortisone base] | 1.02
2 | C[C@@](Cc1ccc(O)c(O)c1)(NN)C(=O)O [Carbidopa] | 0.758
3 | CCCCc1nc(Cl)c(CO)n1Cc1ccc(-c2ccccc2-c2nnn[nH]2)cc1 [Losartan] | 0.949
4 | O=C(CCNNC(=O)c1ccncc1)NCc1ccccc1 [Nialamide] | 1.02
5 | O=C(Nc1ccccc1)OCC(CN1CCCCC1)OC(=O)Nc1ccccc1 (centres undefined) [Diperodon hydrochloride] | 0.916
6 | CN1Cc2c(N)cccc2C(c2ccccc2)C1 (centres undefined) [Nomifensine maleate] | 0.782
7 | CCN1C(=O)NC(c2ccccc2)C1=O (centres undefined) [Ethotoin] | 0.907
8 | NCCNCCNCCNCCN [Tetraethylenepentamine pentahydrochloride] | 0.943
9 | Cc1c(Cl)cccc1Nc1ncccc1C(=O)O [Clonixin Lysinate] | 0.835
10 | Cn1nnc2c(C(N)=O)ncn2c1=O [Temozolomide] | 0.997
11 | C[n+]1ccccc1/C=N/O [Pralidoxime chloride] | 0.85
12 | CC(C)Oc1ccc2c(=O)c(-c3ccccc3)coc2c1 [Ipriflavone] | 0.735
13 | CCC(NC(C)C)C(O)c1ccc(O)c(O)c1 (centres undefined) [Isoetharine mesylate salt] | 0.84
14 | NC(=O)c1cccnc1 [Nicotinamide] | 0.968
15 | CCOc1ccc2nc(S(N)(=O)=O)sc2c1 [Ethoxzolamide] | 0.529
16 | CC(C)(C)NC(=O)[C@H]1CC[C@H]2[C@@H]3CC[C@H]4NC(=O)C=C[C@]4(C)[C@H]3CC[C@]12C [Finasteride] | 0.864
17 | CC[N+](CC)(CC(=O)Nc1c(C)cccc1C)Cc1ccccc1 [Denatonium benzoate] | 1.08
18 | CC1=C(CC(=O)O)c2cc(F)ccc2/C1=C\c1ccc([S+](C)[O-])cc1 (centres undefined) [Sulindac] | 1.1
19 | Nc1ncnc2c1ncn2C1OC(COP(=O)(O)O)C(O)C1O (centres undefined) [Adenosine 5'-monophosphate monohydrate] | 1.02
20 | COC(=O)N/N=C/c1c[n+]([O-])c2ccccc2[n+]1[O-] [Carbadox] | 1.07

Row | SMILES | ALDHbr
21 | NC(=O)N1c2ccccc2CC(=O)c2ccccc21 [Oxcarbazepine] | 1.06
22 | Clc1ccc(Cn2c(CN3CCCC3)nc3ccccc32)cc1 [Clemizole hydrochloride] | 1.01
23 | OCCN1C[C@H](O)[C@@H](O)[C@H](O)[C@H]1CO [Miglitol] | 0.903
24 | COc1ccc2c(c1)C(=O)N(CCc1ccc(S(=O)(=O)NC(=O)NC3CCCCC3)cc1)C(=O)C2(C)C [Gliquidone] | 0.972
25 | COC1=C(OC)C(=O)C(CCCCCCCCCCO)=C(C)C1=O [Idebenone] | 0.804
26 | Cc1ncc([N+](=O)[O-])n1CC(O)CCl (centres undefined) [Ornidazole] | 1
27 | O=C(CCCN1CCC(O)(c2ccc(Br)cc2)CC1)c1ccc(F)cc1 [Bromperidol] | 0.822
28 | CCN1CCCC1CNC(=O)c1cc(S(N)(=O)=O)ccc1OC (centres undefined) [Sulpiride] | 0.969
29 | OCCN1CCN(CCCN2c3ccccc3Sc3ccc(Cl)cc32)CC1 [Perphenazine] | 0.157
30 | CCOC(=O)C1=C(COCCN)NC(C)=C(C(=O)OC)C1c1ccccc1Cl (centres undefined) [Amlodipine] | 0.391
31 | C(=C\c1ccccc1)/CN1CCN(C(c2ccccc2)c2ccccc2)CC1 [Cinnarizine] | 0.99
32 | Clc1ccc(CO/N=C(\Cn2ccnc2)c2ccc(Cl)cc2Cl)c(Cl)c1 [Oxiconazole Nitrate] | 0.565
33 | COc1ccccc1OCC(O)CN1CCN(CC(=O)Nc2c(C)cccc2C)CC1 (centres undefined) [Ranolazine] | 0.891
34 | COc1ccc(-c2cc(=S)ss2)cc1 [Anethole-trithione] | 0.648
35 | CN1CCC(=C2c3ccccc3CCc3cccnc32)CC1 [Azatadine maleate] | 0.93
36 | c1ccc(-c2ccc(C(c3ccccc3)n3ccnc3)cc2)cc1 (centres undefined) [Bifonazole] | 0.946
37 | CCCCC1=NC2(CCCC2)C(=O)N1Cc1ccc(-c2ccccc2-c2nnn[nH]2)cc1 [Irbesartan] | 0.959
38 | CO[C@H]1/C=C/O[C@@]2(C)Oc3c(C)c(O)c4c(O)c(c(/C=N/N5CCN(C)CC5)c(O)c4c3C2=O)NC(=O)/C(C)=C\C=C\[C@H](C)[C@H](O)[C@@H](C)[C@@H](O)[C@@H](C)[C@H](OC(C)=O)[C@@H]1C [Rifampicin] | 1.01
39 | O=C1NCCN1c1ncc([N+](=O)[O-])s1 [Niridazole] | 0.826
